We go through 56 molecules from publication PMC4336329 (PLoS ONE, 2015).

Hit rate of the full screen: of about 310,000 compounds, about 14,000 (4.5%) showed an effect of 50% or more. Effects have a minus sign here. Some of the results follow.
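Note: peak tail current of the secondary pulse compared with the same well before compound.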

In the assay the target is human ether-à-go-go-related gene (hERG) potassium channel (human, UniProt Q12809). Briefly: primary screen, population patch clamp on CHO cells stably expressing hERG.
Sequence of human ether-à-go-go-related gene (hERG) potassium channel (Q12809 whole entry, looked up): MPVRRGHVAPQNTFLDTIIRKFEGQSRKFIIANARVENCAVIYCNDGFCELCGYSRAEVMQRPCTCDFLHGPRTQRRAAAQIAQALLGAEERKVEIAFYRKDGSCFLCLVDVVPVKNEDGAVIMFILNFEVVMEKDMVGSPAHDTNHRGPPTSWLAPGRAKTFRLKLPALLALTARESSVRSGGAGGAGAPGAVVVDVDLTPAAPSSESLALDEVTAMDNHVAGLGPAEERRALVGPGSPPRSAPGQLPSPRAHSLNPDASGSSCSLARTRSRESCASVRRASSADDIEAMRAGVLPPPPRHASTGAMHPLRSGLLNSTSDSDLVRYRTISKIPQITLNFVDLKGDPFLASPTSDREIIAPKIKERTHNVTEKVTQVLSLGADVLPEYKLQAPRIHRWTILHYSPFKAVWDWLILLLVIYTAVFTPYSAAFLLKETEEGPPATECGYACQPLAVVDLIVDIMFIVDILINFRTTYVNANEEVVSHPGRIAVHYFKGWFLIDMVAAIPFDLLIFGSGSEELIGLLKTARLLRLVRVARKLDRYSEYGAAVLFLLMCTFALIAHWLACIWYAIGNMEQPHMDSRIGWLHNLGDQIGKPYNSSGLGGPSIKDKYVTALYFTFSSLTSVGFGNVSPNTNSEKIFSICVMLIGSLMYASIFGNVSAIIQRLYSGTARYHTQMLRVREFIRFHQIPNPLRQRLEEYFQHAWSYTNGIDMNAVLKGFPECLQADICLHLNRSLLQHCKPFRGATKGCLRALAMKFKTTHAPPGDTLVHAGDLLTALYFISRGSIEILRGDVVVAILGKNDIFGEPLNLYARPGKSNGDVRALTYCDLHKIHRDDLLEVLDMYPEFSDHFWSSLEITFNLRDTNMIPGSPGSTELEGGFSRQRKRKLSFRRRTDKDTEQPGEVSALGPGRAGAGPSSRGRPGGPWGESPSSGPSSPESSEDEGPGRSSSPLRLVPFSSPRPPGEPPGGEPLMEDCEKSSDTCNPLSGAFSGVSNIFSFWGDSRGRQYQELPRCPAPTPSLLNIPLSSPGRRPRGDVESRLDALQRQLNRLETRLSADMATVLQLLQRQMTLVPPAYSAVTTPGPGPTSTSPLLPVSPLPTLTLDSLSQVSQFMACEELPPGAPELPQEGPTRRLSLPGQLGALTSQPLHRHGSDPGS
In the case of `CCCCCCCCCCC[C@@H](C[C@@H]1OC(=O)[C@H]1CCCCCC)OC(=O)[C@H](CC(C)C)NC=O`, the “hERG current change (%, negative = inhibition) at 10uM” value is given as -5.11%.

For `COc1ccc(C(=O)CN2C(=O)NC3(CCCc4ccccc43)C2=O)cc1` (centres unmarked), the “hERG current change (%, negative = inhibition) at 10uM” value was -36.2%.

For `Cc1ccc(S(=O)(=O)Cn2nnnc2C(C(C)C)N2CCC(C(N)=O)CC2)cc1` (centres unmarked), the “hERG current change (%, negative = inhibition) at 10uM” value was determined as 19%.

As for `COc1cc(/C=C(/C#N)c2nc3ccccc3c(=O)[nH]2)ccc1O`, the “hERG current change (%, negative = inhibition) at 10uM” value is given as 13.4%.

For the molecule `O=[N+]([O-])c1[nH]cnc1/C=C/c1ccccc1`, the “hERG current change (%, negative = inhibition) at 10uM” value came out at 6.34%.

Take `O=C(Cn1c(=O)cnc2ccccc21)N1CCCc2ccccc21`: the “hERG current change (%, negative = inhibition) at 10uM” value stood at 10.8%.

`Cc1cc(C(=O)O)ccc1-n1c(C)cc(/C=C2\SC(=O)NC2=O)c1C`: the “hERG current change (%, negative = inhibition) at 10uM” value came out at 12.1%.

In the case of `COc1ccc(-c2noc(C3CCCN(C(=O)c4cccs4)C3)n2)cc1` (centres unmarked), the “hERG current change (%, negative = inhibition) at 10uM” value is -21.1%.

`COC(C(=O)NCc1ccccc1C)c1ccccc1` (centres unmarked): the “hERG current change (%, negative = inhibition) at 10uM” value is 7.71%.

For `CC1CCCCC12NC(=O)N(CC(=O)N1CCN(S(=O)(=O)Cc3ccccc3)CC1)C2=O` (centres unmarked), the “hERG current change (%, negative = inhibition) at 10uM” value is listed as -10.3%.

For the molecule `Cc1ccc(SCCN2CCN(Cc3ccccc3)CC2)cc1.O=C(O)C(=O)O`, the “hERG current change (%, negative = inhibition) at 10uM” value is -37%.

In the case of `CCC1(c2ccccc2)NC(=O)N(CC(=O)N2CC(=O)Nc3ccccc32)C1=O` (centres unmarked), the “hERG current change (%, negative = inhibition) at 10uM” value was 7.97%.

Consider `O=S(=O)(c1cc(Cl)ccc1Cl)N1CCc2ccccc21`, for which the “hERG current change (%, negative = inhibition) at 10uM” value is listed as -0.504%.

In the case of `O=C(c1ccc2c(c1)N(Cc1ccccc1)CCS2)N1CCOCC1`, the “hERG current change (%, negative = inhibition) at 10uM” value was -29.7%.

For the molecule `Cc1ccc(C(=O)Nc2ccccc2C(=O)Nc2ccccn2)cc1Cl`, the “hERG current change (%, negative = inhibition) at 10uM” value is listed as 6.44%.

`N#CCP(=S)(c1ccccc1)c1ccccc1`: the “hERG current change (%, negative = inhibition) at 10uM” value is -2.81%.

As for `COc1ccc(/C=N/NC(=O)c2ccc(O)cc2)cc1CN1CCCc2ccccc21`, the “hERG current change (%, negative = inhibition) at 10uM” value is given as 0.817%.

Regarding `O=C(CC(c1ccccc1)c1cc(Cl)ccc1O)NCCCN1CCOCC1` (centres unmarked), the “hERG current change (%, negative = inhibition) at 10uM” value is -50%.

As for `COc1cc(NC(=O)C2CCCCC2)c2ncccc2c1`, the “hERG current change (%, negative = inhibition) at 10uM” value is -5.19%.

Regarding `C=CC[N@@+]12CC[C@]34c5ccccc5N5/C=C6\C7N(/C=C(\C53)[C@@H](C[C@@H]41)/C(=C/CO)C2)c1ccccc1[C@@]71CC[N@@+]2(CC=C)C/C(=C\CO)[C@@H]6C[C@@H]12.[Cl-]` (some centres unmarked), the “hERG current change (%, negative = inhibition) at 10uM” value amounted to 11.3%.

Turning to `CC(C)c1nc2ccccc2n1CC(O)COC1CCCCC1` (centres unmarked), the “hERG current change (%, negative = inhibition) at 10uM” value came to 7.06%.

`COc1ccccc1-n1c(SCC(=O)Nc2ccc3c(c2)OCO3)nc2c(c1=O)SCC2`: the “hERG current change (%, negative = inhibition) at 10uM” value is given as -4.31%.

`Nc1ccc(C(=O)OC2CCOC2=O)cc1[N+](=O)[O-]` (centres unmarked): the “hERG current change (%, negative = inhibition) at 10uM” value stood at 0.397%.

As for `Cc1ccc(S(=O)(=O)NNC(=S)NC(C)(C)C)cc1`, the “hERG current change (%, negative = inhibition) at 10uM” value is -19%.

`O=C(NNC(=O)C1CC1)c1cc2cc3ccccc3nc2s1`: the “hERG current change (%, negative = inhibition) at 10uM” value came out at 11.4%.

In the case of `CCOC(=O)c1ccc(Nc2ncnc3c2cnn3C)cc1`, the “hERG current change (%, negative = inhibition) at 10uM” value is reported as -8.65%.

With `Cn1c(=O)c2c(nc(Sc3ccccc3N)n2C)n(C)c1=O`, the “hERG current change (%, negative = inhibition) at 10uM” value turned out to be 11.4%.

As to `CCc1nnc(NC(=O)c2ccc(C)o2)s1`, the “hERG current change (%, negative = inhibition) at 10uM” value was -3.77%.

With `CCCc1cc(=O)oc2c(CN3CCCC3)c(O)ccc12`, the “hERG current change (%, negative = inhibition) at 10uM” value was -31.8%.

Consider `COc1cc(OC)c(C2Oc3nc(SC)nnc3-c3ccccc3N2C(C)=O)cc1OC` (centres unmarked), for which the “hERG current change (%, negative = inhibition) at 10uM” value was -19.5%.

Turning to `O=C(COc1ccc(S(=O)(=O)Nc2ccccc2)cc1)N1CCOCC1`, the “hERG current change (%, negative = inhibition) at 10uM” value came to 7.29%.

For `COc1ccccc1CCNC(=O)C(=O)Nc1cc2c3c(c1)C(C)C(=O)N3CCC2` (centres unmarked), the “hERG current change (%, negative = inhibition) at 10uM” value is listed as -26.4%.

For the molecule `CCOCCn1c(-c2ccccc2)nc2ccccc21`, the “hERG current change (%, negative = inhibition) at 10uM” value was found to be 2.1%.

For the molecule `Cc1cc(NC(=O)C(C)SCC(=O)Nc2ccc(Br)cc2Br)no1` (centres unmarked), the “hERG current change (%, negative = inhibition) at 10uM” value was -20.6%.

On to `COc1cc(C(=O)O)ccc1O`, for which the “hERG current change (%, negative = inhibition) at 10uM” value is given as 37.3%.

In the case of `Cc1cc(C(=O)OCC(N)=O)c(C)n1-c1ccccc1`, the “hERG current change (%, negative = inhibition) at 10uM” value stood at 14.4%.

Regarding `O=C(O)c1cccc(CSc2nnc(COc3ccccc3)o2)c1`, the “hERG current change (%, negative = inhibition) at 10uM” value was -7.66%.

As to `CCc1ccc(NC(=O)COc2ccc(Br)cn2)cc1`, the “hERG current change (%, negative = inhibition) at 10uM” value is 5.94%.

With `Cc1cc(NC(=O)CCSc2nc(-c3ccco3)cc(C(F)(F)F)n2)no1`, the “hERG current change (%, negative = inhibition) at 10uM” value amounted to 3.17%.

Turning to `COc1cc(OC)c2c(-c3ccccc3)cc(=O)oc2c1C(CCN1CCCCC1)c1ccc2c(c1)OCO2` (centres unmarked), the “hERG current change (%, negative = inhibition) at 10uM” value is listed as -53.2%.

In the case of `C/C(=N\Nc1cc(-c2ccccc2)nc(-c2ccc(Br)cc2)n1)c1cccc(N)c1`, the “hERG current change (%, negative = inhibition) at 10uM” value came out at 11.8%.

For the molecule `S=C(Nc1ccccn1)NC1CCCC1`, the “hERG current change (%, negative = inhibition) at 10uM” value was -17.6%.

Take `CN(C)CCN(C(=O)COc1ccc(Cl)cc1)c1nc2cc3c(cc2s1)OCO3`: the “hERG current change (%, negative = inhibition) at 10uM” value is listed as -5.52%.

For the molecule `CCOc1ccc(C(=O)NC(=S)N(Cc2ccccc2)Cc2ccccc2)cc1`, the “hERG current change (%, negative = inhibition) at 10uM” value is -6.27%.

`COc1ccc(C(=O)NC(=S)Nc2ccc(S(=O)(=O)Nc3cc(OC)nc(OC)n3)cc2)cc1`: the “hERG current change (%, negative = inhibition) at 10uM” value amounted to 11.1%.

In the case of `CCSc1cc(N2CCCC2)nc(-c2ccc(F)cc2)n1`, the “hERG current change (%, negative = inhibition) at 10uM” value was -3.94%.

Consider `COc1cc(OC)cc(C(=O)N[C@H](C(=O)OCC(=O)N2CCc3ccccc32)C(C)C)c1`, for which the “hERG current change (%, negative = inhibition) at 10uM” value is given as -4.37%.

`COc1ccc(CN2C(=O)CNC2=S)cc1`: the “hERG current change (%, negative = inhibition) at 10uM” value is listed as 18.4%.

Take `Cn1c(=O)n(C)c2cc(S(=O)(=O)NCC(=O)O)ccc21`: the “hERG current change (%, negative = inhibition) at 10uM” value is 8.81%.

Consider `Cc1ccc(NS(=O)(=O)c2cccc(C(=O)O)c2)c(C)c1`, for which the “hERG current change (%, negative = inhibition) at 10uM” value came to 13.8%.

Turning to `O=C(CSc1nc2ccccc2c(=O)n1-c1ccccc1)N1CCN(CCO)CC1`, the “hERG current change (%, negative = inhibition) at 10uM” value was 17.3%.

`COC(=O)N1[C@H](Cc2ccccc2)C=C[C@]1(C)C(=O)NCc1ccccn1`: the “hERG current change (%, negative = inhibition) at 10uM” value amounted to 15.2%.

As to `Cc1ccc(NC(=O)CN(C)C(=O)Cn2cc(C(F)(F)F)ccc2=O)cc1`, the “hERG current change (%, negative = inhibition) at 10uM” value is reported as -12.4%.

With `CC(C)CNC(=O)C(=O)NN=C1CCCCCC1`, the “hERG current change (%, negative = inhibition) at 10uM” value amounted to 4.66%.

For the molecule `COc1ccc(-c2nn(-c3ccccc3)cc2C(=O)Nc2nccs2)cc1`, the “hERG current change (%, negative = inhibition) at 10uM” value was -11.2%.

As for `COc1cc(Cl)ccc1OCc1cc(C(=O)N2C[C@]3(C)C[C@H]2CC(C)(C)C3)no1`, the “hERG current change (%, negative = inhibition) at 10uM” value was -8.91%.
